Measurements published in PubChem BioAssay AID624417 (National Center for Advancing Translational Sciences (NCATS), 2012).
The whole screen tested about 410,000 compounds, of which about 6,400 (1.6%) were called active. Inconclusive means that the source gave no clear call. Such entries were picked first, then a sample of the others. The call rests on the fitted dose curve; in most records, active means well fitted inhibition curve with a large enough effect; inconclusive means small, poorly fitted or top-dose-only effect; inactive means no such curve, though single readings can be large or run the other way. No potency is given beside an inconclusive call; the fits are too rough.

The molecules below were run against Glucagon-like peptide 1 receptor (Homo sapiens) (UniProt P43220) (assay: qHTS of GLP-1 Receptor Inverse Agonists (Inhibition Mode)). Conditions: HEK293 GLP-1R CRE-luciferase, luminescence, 24 h, GLP-1R form is constitutively active; activity change, negative = inhibition: at 38.3 µM (top of the series) unless noted.
Summary of the method: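 Seeding at 200 cells/uL, 12 h culture, 24 hr compound treatment, then luciferase reagent and a luminescence read; cells are HEK293 stably expressing a constitutively active GLP-1R plus cAMP-responsive luciferase.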
Further: nearly all actives have a fitted effect of over 55% in size.
On the % scale 0 is the no-effect control and ±100 the full control effect; potency means the concentration at half of the fitted maximal effect; tags describe the fitted curve by direction and shape.

Chain of UniProt P43220 (P43220 whole entry, looked up): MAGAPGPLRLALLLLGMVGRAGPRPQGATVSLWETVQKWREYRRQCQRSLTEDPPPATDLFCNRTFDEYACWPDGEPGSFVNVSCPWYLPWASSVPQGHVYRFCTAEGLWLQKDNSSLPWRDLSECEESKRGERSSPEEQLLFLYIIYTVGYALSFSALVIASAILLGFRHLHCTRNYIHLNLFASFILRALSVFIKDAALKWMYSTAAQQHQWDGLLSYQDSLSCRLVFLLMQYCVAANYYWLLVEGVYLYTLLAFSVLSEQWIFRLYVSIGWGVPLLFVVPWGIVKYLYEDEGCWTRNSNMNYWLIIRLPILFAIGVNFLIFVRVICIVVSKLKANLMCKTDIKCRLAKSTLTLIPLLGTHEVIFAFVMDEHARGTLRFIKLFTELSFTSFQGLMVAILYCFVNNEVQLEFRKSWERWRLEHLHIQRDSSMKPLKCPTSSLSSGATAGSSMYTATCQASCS

SMILES | Potency | activity change, negative = inhibition
CCc1ccc(-c2cc3c(=O)n(CC(=O)NCCCN4CCN(C)CC4)ncn3n2)cc1 | inconclusive [inhibitor, partial curve, poor fit] | 
O=C(NCCCN1CCOCC1)c1ccc2c(=O)n(Cc3cccc(Br)c3)c(=S)[nH]c2c1 | inconclusive [inhibitor, partial curve, poor fit] | 
O=C(Cc1cccs1)NCc1ccc(Cl)cc1Cl | inconclusive [inhibitor, single point] | 
COc1cccc(CCNC(=O)c2cc(COc3ccc(C)c(C)c3)on2)c1OC | inconclusive [inhibitor, partial curve, poor fit] | 
O=C(COc1ccc(Cl)cc1)Nc1ccc(Cc2ccncc2)cc1 | inconclusive [inhibitor, partial curve] | 
COCCNC(=O)CCC1CCN(C/C=C/c2ccccc2OC)CC1 |  | inactive: 6.09%
CC(C)[C@H](NC(=O)OC(C)(C)C)c1cc(C(=O)NCCO)c(N)s1 |  | inactive: 18.2%
CC1C(=O)N(c2ccc(S(=O)(=O)N(C)C)cc2)C1(/C=C/c1ccccc1)C(=O)NC1CCCC1 (centres undefined) | inconclusive [inhibitor, single point] | 
Cc1cccc(C(O)c2ncc(-c3cccc(C(F)(F)F)c3)[nH]2)c1C (centres undefined) | inconclusive [inhibitor, single point] | 
Cc1ccc(S(=O)(=O)Nc2cc(C)cn(Cc3ccccc3)c2=O)cc1 | inconclusive [inhibitor, single point] | 
CCc1ccc2[nH]c(=O)c(CN(Cc3ccccc3)Cc3nnnn3Cc3ccco3)cc2c1 | inconclusive [inhibitor, partial curve, poor fit] | 
Cc1ccc(C)c(N2CCN(C(=O)CCS(=O)(=O)c3cc4c(cc3Cl)NC(=O)CO4)CC2)c1 |  | inactive: -10.9%
O=C1/C(=C/c2ccncc2)SC(=S)N1N1CCOCC1 |  | inactive: 16.8%
COc1cccc(NC(=O)C(Sc2nnc(Nc3ccccc3C)s2)c2ccccc2)c1 (centres undefined) | active: 10 µM | 
O=C(NCc1ccccc1)C(c1ccc(-c2ccccc2)cc1)N1CCN(CCN2CCOCC2)CC1 (centres undefined) | inconclusive [inhibitor, single point] | 
Cc1ccc(-c2cc(C(=O)N3CCOCC3)no2)cc1 | active: 3.16 µM | 
COc1cc(CN2CC(=O)N(c3cccc(Cl)c3C)C2=S)cc(OC)c1OC | inconclusive [inhibitor, partial curve, poor fit] | 
COc1ccc(NC(=O)CCS(=O)(=O)c2ccc3c(c2)NC(=O)C(C)S3)cc1OC (centres undefined) |  | inactive: 4.13%
C=CC[C@H](CC(=O)NCCO)C(=O)N[C@H](COC(=O)[C@@H](CC=C)Cc1ccc(F)cc1)C(C)(C)C | inconclusive [inhibitor, single point] | 
CC(=O)Nc1ccc(S(=O)(=O)N2CCC(c3nnc(-c4ccc(C)cc4)o3)CC2)cc1 | inconclusive [inhibitor, single point] | 

SMILES | Potency | activity change, negative = inhibition
CCOC(=O)c1ccc2[nH]c3c(c2c1)CCCCC3=O |  | inactive: 177%
O=S(=O)(c1cccs1)N1CN(Cc2ccccc2)c2nc3ccccc3nc21 | inconclusive [inhibitor, partial curve, poor fit] | 
OC(c1ccc(F)c(F)c1)c1nc(-c2cccc(C(F)(F)F)c2)cs1 (centres undefined) | inconclusive [inhibitor, single point] | 
CN(Cc1c(C(=O)N/N=C/c2cccc(F)c2)nnn1-c1nonc1N)c1ccccc1 | inconclusive [inhibitor, single point] | 
Cc1cccc(Oc2nc(CN3CCOCC3)nc3sc4c(c23)CCCC4)c1 | inconclusive [inhibitor, partial curve, poor fit] | 
CSc1cccc(NC(=O)CCc2ccccc2)c1 | inconclusive [inhibitor, single point] | 
O=C(Nc1cccc(F)c1)OC(CN1CCCCC1)C(F)(F)F (centres undefined) | inconclusive [inhibitor, single point] | 
CCN(c1ccccc1)S(=O)(=O)c1ccc(NC(=S)NC(=O)c2cccs2)cc1 | inconclusive [inhibitor, partial curve, poor fit] | 
CC1CN(C(=O)N2CCC(C(=O)N3CCN(c4ccccc4)CC3)CC2)c2cc(Cl)ccc2O1 (centres undefined) | inconclusive [inhibitor, single point] | 
Cc1cccc(NS(=O)(=O)c2cccc(C(=O)NNC(=O)c3ccccc3O)c2)c1 | inconclusive [inhibitor, single point] | 
CCOC(=O)C1=CCN(S(=O)(=O)c2ccccc2C)C1c1cccc(Br)c1 (centres undefined) | inconclusive [inhibitor, single point] | 
CCN(CC)S(=O)(=O)c1cc([N+](=O)[O-])ccc1NNC(=O)Nc1ccccc1OC | inconclusive [inhibitor, partial curve, poor fit] | 
CCOc1cc2[nH]c(=O)n(CCCCC(=O)N3CCN(c4ccc(OC)cc4)CC3)c(=O)c2cc1OCC |  | inactive: 2.77%
O=C1CCCc2cc(S(=O)(=O)N3CCCC(C(=O)Nc4ccc(F)c(Cl)c4)C3)ccc2N1 (centres undefined) | inconclusive [inhibitor, single point] | 
CCS(=O)(=O)c1ncc(Cl)c(C(=O)Nc2ccc(S(=O)(=O)N3CCC(C)CC3)cc2)n1 | inconclusive [inhibitor, single point] | 
Cc1ccc(-n2c(C)cc(/C=c3/sc4nc5ccccc5n4c3=O)c2C)cc1 | inconclusive [inhibitor, full curve, poor fit] | 
CC(C)(C)NS(=O)(=O)c1ccc(NC(=O)C2CCCCC2)cc1 | inconclusive [inhibitor, single point] | 
COc1ccc(Nc2nnc(-c3ccccc3)c3ccccc23)cc1C(=O)N1CCCCC1 | inconclusive [inhibitor, partial curve, poor fit] | 
CCCN1CCC(Oc2cccc(C(=O)NCCc3ccccc3)c2)CC1 | inconclusive [inhibitor, partial curve, poor fit] | 
